Among all 45,000 compounds or so, about 65 (0.1%) were called active. Calls come from the whole dose curve; as a rule, active = well fitted activation curve with a large enough effect; inconclusive = small, poorly fitted or top-dose-only effect; inactive = no such curve, though single readings can be large or run the other way. This is one part of the list.
What follows are compounds tested against Galactocerebrosidase (Homo sapiens) (UniProt P54803) (assay: A Novel Cell-Based Assay to Identify Small Molecules for B -Galactocerebrosidase). Conditions: 145M-Twi-hGALC-G270D cells (Twitcher mouse brain line with human GALC G270D), HMU-beta-Gal fluorescence, 48 h; series mostly up to 57.5 µM; activation: at the top concentration.
Outline: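 Fluorescence readout: HMU-β-gal cleavage by mutant GALC (0.1 mM final, citrate/phosphate pH 5.2 with 1 mg/mL taurocholate), stopped with carbonate/bicarbonate plus Triton X-100. Cells: murine Twitcher 145M-Twi expressing human G270D GALC; qHTS for activators.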
Note: 0% is about no effect; nearly all actives have a fitted effect of over 65% in size.

Sequence of UniProt P54803 (P54803 whole entry, looked up): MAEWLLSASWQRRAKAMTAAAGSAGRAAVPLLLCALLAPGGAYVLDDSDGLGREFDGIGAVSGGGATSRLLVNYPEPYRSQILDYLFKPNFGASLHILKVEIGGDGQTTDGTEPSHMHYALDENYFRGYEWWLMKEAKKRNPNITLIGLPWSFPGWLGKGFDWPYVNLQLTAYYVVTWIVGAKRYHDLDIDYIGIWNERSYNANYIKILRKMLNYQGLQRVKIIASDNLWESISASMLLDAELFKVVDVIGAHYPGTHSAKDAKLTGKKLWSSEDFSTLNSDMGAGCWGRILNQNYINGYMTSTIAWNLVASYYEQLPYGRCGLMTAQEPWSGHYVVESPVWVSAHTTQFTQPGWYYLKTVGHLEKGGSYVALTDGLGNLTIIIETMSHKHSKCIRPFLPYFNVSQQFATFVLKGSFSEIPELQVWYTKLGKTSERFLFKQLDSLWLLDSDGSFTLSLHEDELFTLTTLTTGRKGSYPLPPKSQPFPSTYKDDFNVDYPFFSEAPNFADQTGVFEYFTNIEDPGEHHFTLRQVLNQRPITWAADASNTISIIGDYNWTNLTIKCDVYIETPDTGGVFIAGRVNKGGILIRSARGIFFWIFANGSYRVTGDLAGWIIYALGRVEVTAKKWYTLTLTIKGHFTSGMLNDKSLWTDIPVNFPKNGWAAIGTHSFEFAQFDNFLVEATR

activation, inactive:
COc1cccc(C(=O)Nc2cc3cc(OC)ccc3oc2=O)c1 0.132%
COC(=O)c1cc2sc(Cl)cc2n1Cc1nc(-c2ccc(OC)cc2)oc1C -11.1%
COc1ccc(N(CC(=O)NCCc2cccc(C)c2)S(=O)(=O)c2c(C)noc2C)cc1 -6.04%
Cc1cc(C(=O)NCCc2ccc(Cl)cc2)c2c(C)nn(-c3cccc(F)c3)c2n1 -1.63%
Cc1ccc(C(=O)Nc2ccc(C(=O)OCc3cc(=O)n4ccsc4n3)cc2)cc1 -20.7%
CC(C)(C)c1ccc(C2NC(=O)c3n[nH]c(-c4cccs4)c32)cc1 (centres undefined) -18%
Cc1ccc(Cl)cc1NC(=O)COCc1cc(-c2ccco2)on1 3.5%
CCCCSCCCNC(=O)CN1C(=O)COc2ccc(S(=O)(=O)N3CCC(C)CC3)cc21 12.3%
COc1ccc(C)cc1NC(=O)C(=O)NCC1(c2ccccc2)CCCC1 -10.7%
O=C(Nc1nnc(S(=O)(=O)N2CCN(c3ccc(F)cc3)CC2)s1)c1ccc(Cl)cc1 -9.11%
O=C(CNC(=O)c1ccc(Cl)cc1)OCc1cc(=O)n2ccsc2n1 -5.43%
COc1ccc(-c2[nH]c3c(c2-c2c(-n4cccc4)n(C)c(=O)n(C)c2=O)c(=O)n(C)c(=O)n3C)cc1 -18.3%
COc1ccccc1N1CCN(c2ncnc3c2nc2n3CCCC2)CC1 4.5%
COC(=O)c1ccc(NC(=O)Cn2nc(C(=O)Nc3ccc(C)cc3)ccc2=O)cc1 -5.71%
Cc1ccc(NC(=O)Cn2c(CCC(=O)O)ccc2-c2ccc(Cl)cc2)cc1 -15.5%
Cc1ccc(Cn2cc(CCC(=O)NCc3ccccc3F)c3ccccc32)cc1 -6.28%
CCN(CC)S(=O)(=O)c1ccc2c(c1)N(CC(=O)N(C)Cc1ccccc1)C(=O)CO2 -8.83%
COCCNC(=O)C(=O)NCC(c1cccnc1)N1CCN(c2ccccc2)CC1 (centres undefined) -6.29%
Cc1ccc(-n2c(SCC(=O)Nc3c(C)cccc3C)nc(O)c(C)c2=O)cc1 -7.2%
CCC1CN(C(=O)N2CCC(C(=O)NCc3ccco3)CC2)c2ccccc2O1 (centres undefined) -13.4%
O=C(Cc1ccc(Cl)cc1)Nc1ccc2nn(-c3ccccc3)nc2c1 -14.9%
Cc1ccccc1C(c1c(C)n(C)n(-c2ccccc2)c1=O)c1c(C)n(C)n(-c2ccccc2)c1=O -20.2%
CC(C)CCNc1ncnc2c1cnn2-c1cccc(Cl)c1 -2.57%
Cc1ccc(-n2ncc3c(=O)n(Cc4ccccc4C)cnc32)cc1C -15.7%
Cc1cc(C)c(CN2C(=O)c3ccccc3S(=O)(=O)c3ccc(C(=O)OCC4CCCO4)cc32)c(C)c1 (centres undefined) -10.5%
CCS(=O)(=O)c1ncc(Cl)c(C(=O)N(Cc2ccccc2)c2ccc(OC)cc2)n1 -20.5%
CCOc1ccc2c(c1)c(=O)c(C(=O)c1ccc(C)cc1)cn2Cc1ccccc1OC -12.2%
CC(=O)c1cccc(NC(=O)N2CCC(CN3CCCCC3)CC2)c1 -17.5%
CC(C)c1ccc(NC(=O)Cn2c(=O)n(Cc3nc(-c4ccccc4)no3)c(=O)c3cc4c(cc32)OCO4)cc1 -8.46%
CCOc1ccccc1NC(=O)CN1C(=O)C2(SCC(=O)N2c2ccc(C)cc2)c2ccccc21 (centres undefined) -14.1%
CO[C@@]1(NC(=O)Cc2cccs2)C(=O)N2C(C(=O)O)=C(COC(N)=O)CS[C@@H]21 -14%
CS(=O)(=O)N1CCc2cc(C(=O)Nc3ccc(S(N)(=O)=O)cc3)ccc21 -23.4%
COc1cccc(Nc2sc(C(=O)c3ccc(Cl)cc3)c(N)c2C(=O)NCCc2ccc(OC)c(OC)c2)c1 -20.9%
CCc1ccc(NC(=O)c2ccc(F)c(S(=O)(=O)NCCc3ccc(OC)c(OC)c3)c2)cc1 4.82%
COc1ccc(OC)c(Nc2c3c(nc4ccccc24)CCC3)c1 -16.6%
COc1cc(Cl)c(NC(=O)C(NS(=O)(=O)c2cccs2)C(C)C)c(OC)c1 (centres undefined) -11.2%
CCCN(Cc1cccs1)C(=O)Nc1ccc(F)c(Cl)c1 -5%
Cc1ccc(-n2ncc(C(=O)NCCCN3CCN(C)CC3)c2C2CCN(C(=O)OC(C)(C)C)CC2)c(C)c1 -7.86%
Cn1c(Oc2ccccc2)nc2c1c(=O)n(Cc1ccc(Cl)cc1Cl)c(=O)n2C -13.5%
CC(C)(C)OC(=O)N1CCC(c2c(C(=O)N3CCCCC3)cnn2-c2ccc(F)cc2F)CC1 -20.8%
CC(=O)c1ccc2c(c1)N(CCCN1CCC(CCO)CC1)c1ccccc1S2 -12.9%
Cc1ccc(C)c(NC(=O)Cn2c(=O)n(Cc3ccc4c(c3)OCO4)c(=O)c3ccccc32)c1 2.87%
CCCSc1nnc2n(-c3cccc(C)c3)c(=O)c3c4c(sc3n12)CCCC4 -7.07%
Cc1cccc(C(=O)OCc2cc(=O)n3nc(-c4cccs4)sc3n2)c1 -7.29%
CCOC(=O)C1CCCN(C(=O)c2ccc(NC(=O)c3nsc4ccccc34)cc2)C1 (centres undefined) -3.79%
CNS(=O)(=O)c1cn(CC(=O)N2CCN(c3ccccc3OC)CC2)cc1S(=O)(=O)NC -3.81%
Cc1ccc2c(CC(=O)N(Cc3cccc(Cl)c3)C3CCS(=O)(=O)C3)coc2c1 (centres undefined) 15.2%
Cc1ccc(C(=O)CC2(O)C(=O)N(Cc3ccccc3)c3ccccc32)c(C)c1 (centres undefined) -2.47%
COC(=O)c1ccccc1NC(=O)Cn1c(=O)cc(C)c2c(C)nn(-c3cccc(Cl)c3C)c21 -16.1%
O=C(CCn1cnc2onc(-c3ccc(F)cc3)c2c1=O)N1CCN(c2ccccc2F)CC1 -1.18%
O=C(CC1Nc2cccc3cccc(c23)NC1=O)Nc1ccc(F)cc1 (centres undefined) -22.1%
COc1ccc(Cl)cc1NC(=O)Cn1cnc2sc(C)c(S(=O)(=O)N3CCN(c4ccccc4OC)CC3)c2c1=O -13.1%
N#Cc1cccc(NC(=O)CCNS(=O)(=O)c2ccc3c(c2)CCN3C(=O)C2CC2)c1 -43.3%
CC(C)OCCCN1C(=O)c2[nH]nc(-c3ccccc3O)c2C1c1cccc(OCc2ccccc2)c1 (centres undefined) -8.31%
Cc1ccc2c(c1)C(c1ccc(F)cc1)N(C(=O)c1cccc(C(F)(F)F)c1)CC(=O)N2 (centres undefined) -20.5%
Cc1ccc(-n2nnnc2CNC(=O)c2ccccc2C)cc1C -14.5%
COc1cccc(N2CCN(Cc3cc(=O)oc4cc(C)ccc34)CC2)c1 -13.5%
Cc1cc(C)cc(-n2ccnc2SCC(=O)Nc2nc3ccc(C)cc3s2)c1 -20.3%
COc1ccc(-c2nc(Cn3c(=O)cc(C)c4c(C)nn(-c5ccccc5)c43)c(C)o2)c(OC)c1 -8.13%
